From the supplement of paper PMC7335073
The full ranking holds about 4,100 sequences; the median of “relative CpG methylation activity (normalised to average over all NNNCGNNN flanks)” is about 0.87, and the highest 2% start at about 2.4. Some of the results follow.

Molecular target: DNMT3A catalytic domain (mouse) (UniProt O88508)
Experiment: relative CpG methylation activity (normalised to average over all NNNCGNNN flanks) (relative (1 = mean)); higher = more methylation of the central CpG
Details: system: in vitro, murine catalytic domain; CpG state: hemimethylated substrate pool; residues: 608-908
Outline: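 Pooled dsDNA substrates with a central CpG inside 10 random flanking nucleotides were methylated by murine DNMT3A or DNMT3B catalytic domain with 0.8 mM S-adenosyl-L-methionine in HEPES pH 7.5 buffer for 60 min at 37 °C. The DNA then went through proteinase K, BsaI-HFv2 digestion, hairpin ligation, bisulfite conversion and two-step PCR before Illumina sequencing. Relative methylation activity is the average methylation of each context with three flanking bases per side, divided by the mean over all contexts. Each experiment had two independent repeats.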

Sequence	relative CpG methylation activity
AGGCGCGC	0.467
GGTCGGAC	0.604
AGCCGTTC	0.982
ACTCGATG	0.513
GCTCGCAA	1.07
CTGCGATG	0.813
CTTCGTAA	1.85
TCTCGTAG	0.833
CGACGAGG	0.271
GATCGGAA	0.174
TAACGGAT	0.824
AGACGGGC	0.598
TAACGCAT	0.689
GATCGGCA	0.478
TGTCGTCT	1.08
CACCGTGA	0.394
ACCCGCAG	0.434
TCACGCTC	2.5
TTCCGGAT	1.4
CGGCGTAC	0.625
GCTCGGGG	0.541
GCACGTTG	0.579
TAACGAGA	0.482
TTACGATG	1.45
CGCCGGAA	0.719

Sequence	relative CpG methylation activity
TGGCGGAA	0.602
TGACGCGT	0.486
AACCGTAA	1.09
ACCCGCCA	1.19
GTGCGATG	0.795
CTACGATC	2.4
CGGCGTAG	0.353
ACTCGACA	1.02
GAACGCGG	0.208
GCCCGTAC	1.1
CTCCGGGC	1.49
CCCCGAGC	1.81
GGGCGCCA	1.15
AACCGGGC	1.05
CACCGATA	0.729
CGGCGTTA	0.492
TAACGTAC	0.748
TCCCGGAC	1.06
CAGCGGCT	0.413
CGGCGTGA	0.345
CGTCGCAA	0.741
CGTCGGCA	0.75
GCCCGAGC	1.7
GCTCGGTC	1.31
CTACGGGT	1.9

Sequence	relative CpG methylation activity
GCCCGTTA	1.1
GACCGTCT	1.43
CCTCGCCG	1.68
TTCCGCAT	1.78
AAGCGCTA	0.729
AAGCGTAT	0.285
ACGCGTAC	0.804
CATCGTCT	1.43
CAGCGCAA	0.544
CCTCGATT	0.766
TACCGTGT	0.243
CGCCGTAC	0.711
CAACGCCG	1.12
TTACGTTT	1.72
CCGCGATG	0.571
CTACGCGC	2.25
TTGCGATT	1.05
GGTCGCAA	0.443
CTCCGGCA	1.32
CAGCGTAC	0.544
CGGCGTCA	0.855
GTTCGCAC	1.19
CACCGTAC	0.709
CTACGTAG	1.55
AAGCGTCT	0.915

Sequence	relative CpG methylation activity
ACACGTTG	0.878
TACCGCAA	0.763
TGCCGCCT	1.76
CTCCGTAA	1.82
AAGCGGAG	0.206
CACCGCCG	1.54
GGACGGTC	1
TCGCGCCT	1.7
CGGCGGTG	0.231
TTTCGGCT	0.887
GTTCGTCA	1.79
GCCCGACT	1.21
GAGCGGGT	0.411
ATACGGTA	1.58
TGGCGAGT	0.53
CTTCGTTC	1.18
TCGCGGTG	0.556
TAGCGTAG	0.208
TAGCGGGA	0.263
AGTCGCTG	1.05
CCCCGATC	1.92
TAACGATA	0.685
TGCCGACG	0.68
ATTCGAAG	0.433
CAGCGTAT	0.215

Sequence	relative CpG methylation activity
GGTCGAAA	0.512
AATCGGGA	0.138
GCTCGGCC	1.3
CTACGTAA	2.4
AACCGGAG	0.25
TGGCGGCC	1
CTACGGAA	1.68
TAACGTAT	0.524
TTCCGGAG	0.682
CGCCGGTC	0.991
AACCGCAT	0.826
ACCCGTTC	1.26
GGTCGGTG	0.0893
TGGCGTGT	0.025
CCCCGGAG	0.407
TTGCGAAC	1.77
CGTCGTAC	0.68
TAGCGCCC	1.24
AGTCGTTT	0.494
TATCGTTC	0.692
CATCGGAG	0.238
CTCCGTCC	2.65
GGCCGATT	0.737
CAACGTGC	0.55
GTACGACA	1.91

Sequence	relative CpG methylation activity
GTGCGGAA	0.921
TTACGGTT	1.67
GACCGGTA	0.507
GTACGATG	1.07
TCACGTCG	2.02
ACGCGTGA	0.47
TAACGGCA	0.902
CGGCGATT	0.328
CCACGTGC	0.851
CCACGTGG	0.324
CCTCGCCA	1.67
AGACGCAC	1.23
GGGCGCGG	0.143
AGACGCGT	0.843
TTCCGTTC	1.43
GAGCGACT	0.672
CATCGGAA	0.388
CCGCGTGT	0.25
TTTCGAGA	0.581
TACCGTCT	1.4
TCCCGTTC	1.35
CCTCGTTA	1.25
CAACGTCC	1.67
CAGCGTGG	0.106
CAGCGGGT	0.205

Sequence	relative CpG methylation activity
CAACGATC	1.07
AGTCGAGA	0.289
ATCCGGCA	1.55
TCACGTAG	1.04
GTACGCGT	1.75
CGACGGGA	0.539
TCCCGCTT	1.84
GATCGCGC	0.445
GGTCGGCA	0.489
CCGCGCGC	0.889
AACCGTGG	0.153
CCCCGTTT	0.954
TGTCGACA	0.462
CGACGCCC	1.65
AGACGCCA	1.09
CACCGAGG	0.366
TCGCGGCC	1.01
CTGCGCCT	1.81
GACCGCGA	0.789
AAGCGCGG	0.216
TAGCGTGT	0.153
GATCGATT	0.205
GAACGGGC	0.87
GCTCGCAG	0.648
GGCCGTAT	0.28

Sequence	relative CpG methylation activity
CCCCGTGT	0.512
GCGCGCCT	2.07
CATCGGAT	0.46
TACCGATT	0.837
CCGCGAAT	0.581
CCTCGGAG	0.294
ATGCGGGG	1.17
CAGCGACG	0.442
GTACGTGC	1.2
AAGCGTAG	0.143
GTACGCCC	2.39
TGCCGAGC	1.38
TAGCGGAC	0.517
CCCCGCGG	0.391
GGTCGCTA	0.625
ACTCGGAT	0.799
GATCGTCA	0.592
GCACGAGA	1
CCGCGATA	1.07
AATCGCTC	0.962
GAGCGAAA	0.796
TTCCGCCC	2.77
ACTCGTAT	0.636
GACCGTGC	0.468
AACCGATT	0.836

Sequence	relative CpG methylation activity
CAACGCTG	0.808
CCGCGGCC	0.986
GTCCGCTA	1.9
ATCCGGTC	1.59
CTGCGCAT	1.47
GGACGGGG	0.233
CGACGTCA	0.996
ACACGAAC	1.79
GCCCGTCG	1.5
ACTCGTTA	0.745
AAGCGTTC	0.597
CTCCGTTG	0.955
AGCCGTGC	0.364
CCGCGAAA	0.844
ATGCGGAA	0.851
TAGCGAGT	0.361
GTGCGTCC	1.93
CGGCGATA	0.599
GATCGTGT	0.025
